Data published in the supplement of paper PMC10338343.
± gives the standard deviation. The entries are a selection whose mix differs from that of the whole data set.

test system: MIWI (PIWIL1) piRISC loaded with L1MC piRNA (30 nt); test: pre-steady-state target cleavage rate (min^-1); MIWI and MILI are mouse PIWI proteins and EfPiwi is from a freshwater sponge; tags in brackets are library labels; higher = faster piRNA-guided slicing of the target; conditions: guide: L1MC piRNA 5'p-UAACUAAAUACUAUGCAAGCUGUAGGUCCU; auxiliary factor: 500 nM mouse GTSF1
Method in brief: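 The method was Cleave-'n-Seq, in which uncleaved targets from a transcribed, DNA-blocked target RNA library were sequenced after exposure to active affinity-purified piRISC carrying one synthetic guide, with or without GTSF1 partner protein. Reactions contained 0.1 nM library, 1 nM piRISC and, where present, 500 nM GTSF1 in HEPES–potassium acetate buffer at 33 °C for 0–8 or 0–960 min. Reads were normalised to depth and to weakly complementary targets, three trials were pooled, and k3 was capped at 0.0001 min^-1. The pre-steady-state cleavage rate came from a burst-and-steady-state fit.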

Sequence | pre-steady-state target cleavage rate
UCCUGGUACAGCUUGCAUAGAAUUUACAAA | 0.0317 ± 0.014
UGGACCUACAGCUUCGAUAGUAUUUAGUAA | 0.307 ± 0.04
UCCACCUACAGCAAGCAUAGUAUUUACAAA | 0.29 ± 0.047
UCCUGGAUGUCCUAGCAUUGUAUUUAGUUA | 0.00474 ± 0.0045
UCCACCUACAGCUUGCAUAGUAUUAUCAAA | 0.273 ± 0.043
AGGACCUACAGCUUGCAUAGUAAAUACAAA | 0.187 ± 0.042
UCCUGGAUGUCGUUGCAUAGUAUUAGUUA | < 0.0001
UCCUGGAACAGCUUGCAUUCUAUUUAGUAA | 0.0298 ± 0.01
UCGACCUACAGCUUGCAUAGUUUUUUCAAA | 0.299 ± 0.059
UCCUCCUACAGCUACGAUAGUAUUUAGUAA | 0.0585 ± 0.018
AGGACCUACAGCUAGCAUAGUAUUUACAAA | 0.474 ± 0.071
UCCACCUACAGCUUGCAUAGUAUUAUGAAA | 0.234 ± 0.04
UCCUGGAUGAGGUUGCAUAGAAUUUAGUUA | 0.0149 ± 0.0068
UCGACCUACACGUUGCAUAGUAUUUUCAAA | 0.224 ± 0.036
UCCUGGAUCAGCUUGCAUAUAUUUAGUUA | 0.0178 ± 0.0053
UCCUGGAUGACCUAGCAUAGUAUUUAGUUA | 0.0593 ± 0.013
UCCUGCUACAGCUUGCAUAGUAAAUAGAAA | 0.216 ± 0.05
UCCUGGAUGUCCAUGCUUAGUAUUUAGUUA | 0.00676 ± 0.0046
UCCUCCUACAGCUAGCAUAGUAUUUUCAAA | 0.321 ± 0.04
UCCUCCUACAGCUUCCAUAGUUUUUAGUUA | 0.0305 ± 0.013
UCCUGGAUGUCGAUGCAUAGUAUUUACUUA | 0.00979 ± 0.0041
UCCUGGAUCAGCUUGCAUACAAUUUAGUUA | 0.00714 ± 0.0037
UCCUGGAACAGCUUGCUUAGUAUUUACAAA | 0.286 ± 0.063
UCCUGGUACAGCUUCCAUUGUAUUUAGUUA | 0.124 ± 0.036
